Data from publication PMC2110886 (PLoS ONE, 2007).

Assay: Steady-state plasma pharmacokinetics, open-label randomized three-way crossover study, drugs alone or in combination
Settings: Amantadine + Oseltamivir/Oseltamivir alone
[1] = oseltamivir carboxylate in plasma

Row | SMILES | Clast (Ctrough), ratio of geometric means [1] | Cmax, ratio of geometric means [1] | Clast (Ctrough), ratio of geometric means (oseltamivir in plasma) | Cmax, ratio of geometric means (oseltamivir in plasma)
1 | CCC(CC)O[C@@H]1C=C(C(=O)O)C[C@H](N)[C@H]1NC(C)=O [Oseltamivir carboxylate, oseltamivir carboxylate] | 1.03 | 0.95 | – | –
2 | CCOC(=O)C1=C[C@@H](OC(CC)CC)[C@H](NC(C)=O)[C@@H](N)C1 [Oseltamivir, oseltamivir, reference compound] | – | – | 0.95 | 0.85
